PubChem BioAssay AID1508624 (National Center for Advancing Translational Sciences (NCATS), 2021)
About 120 (0.25%) of roughly 48,000 compounds were called active. Inconclusive results (about 4%) are left out. The call rests on the fitted dose curve; in most records, active means well fitted activation curve with a large enough effect; inconclusive means small, poorly fitted or top-dose-only effect, or another doubt; inactive means no such curve, though single readings can be large or run the other way. This is one part of the list.

Assay: Primary qHTS for Identification of Small Molecule Activators of Huntingtin-Antisense Promoter Activity; further: nearly all actives have a fitted effect of over 55% in size
Conditions: HEK293 HTT-AS promoter firefly luciferase reporter, 24 h; series mostly up to 57.5 µM; activity change, positive = activation: at the top concentration
Method in brief: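 Quantitative HTS used concentration series of up to 57.5 uM final on HEK293 luciferase reporter cells, 24 h at 37 degrees C. Readout was Dual-Glo firefly luminescence.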
Potency means the concentration at half of the fitted maximal effect.

SMILES | activity change, positive = activation | Potency
Cc1ccc2c(CC(=O)Nc3cc(C(F)(F)F)ccc3Cl)coc2c1C | inactive: -5.21% | 
CCC12CN3CC(CC)(CN(C1)C3c1ccc(OCc3ccccc3)cc1)C2=O (configuration not stated) | inactive: 11.1% | 
O=S(=O)(O)NC1CCCCC1 | inactive: -2.49% | 
CCOC(=O)c1c(C)[nH]c(C)c1S(=O)(=O)N1CCC(C(=O)Nc2ccccn2)CC1 | inactive: -5.38% | 
Cc1ccc2oc(=O)n(CCNC(=O)Nc3ccccc3Cl)c2c1 | inactive: -22.3% | 
COc1ccc(C2CC(=O)Nc3c2c(=O)nc2c(C)cccn32)cc1 (configuration not stated) | inactive: -13.2% | 
O=C(Cn1nnc2sc3c(c2c1=O)CCCC3)Nc1ccc(F)c(Cl)c1 | inactive: -9.88% | 
COc1cccc(NC(CNS(=O)(=O)c2ccc(C)cc2)c2ccccc2)c1 (configuration not stated) | inactive: -22.2% | 
CCN1C(=O)c2ccccc2Sc2ccc(NC(=O)c3ccc(C)c(F)c3)cc21 | inactive: -32.7% | 
Cc1cc(-c2ccc(C)c(S(=O)(=O)NCc3ccc(Cl)cc3)c2)on1 | inactive: -23% | 
CCCS(=O)(=O)NCCc1csc2nc(-c3ccc(OC)cc3)nn12 | inactive: -6.45% | 
Cc1ccccc1CNC(=O)CCCn1nc(C)c2sc3ccccc3c2c1=O | inactive: -1.79% | 
COc1ccc(C2NC(=O)NC(C)=C2C(=O)Nc2cc(C)cc(C)c2)c(OC)c1 (configuration not stated) | inactive: -12% | 
CCc1c(C)nc2nncn2c1Nc1ccc(C)c(F)c1 | inactive: -16.1% | 
COc1ccccc1N(CC(=O)NCCSCc1ccc(Cl)cc1)S(C)(=O)=O | inactive: -2.24% | 
CN(Cc1ccccc1)c1ncnc2c1nc1n2CCCC1 | inactive: -10.7% | 
COc1cccc(CNC(=O)c2c(O)nc3ccccn3c2=O)c1 | inactive: -5.01% | 
CCOc1ccc(N2CC(c3nc4ccccc4n3CC(C)C)CC2=O)cc1 (configuration not stated) | inactive: -3.77% | 
COc1cc(-c2noc(-c3ccc(NCCc4ccccc4)c([N+](=O)[O-])c3)n2)cc(OC)c1OC | inactive: 10.4% | 
COc1cc(NC(=O)CCNS(=O)(=O)c2ccc3c(c2)CCN3C(=O)C2CC2)cc(OC)c1 | inactive: -5.45% | 
CC(C)NC[C@@H](O)COc1cccc2ccccc12 | inactive: -11% | 
COCC(=O)N1CCc2cc(OC)c(OC)cc2C1COc1ccc2c(C)cc(=O)oc2c1 (configuration not stated) | inactive: 16.3% | 
Cc1ccc(C)c(N2CCN(C(=O)c3ccc4c(Cl)c5c(nc4c3)CCCC5)CC2)c1 | inactive: -18.9% | 
O=c1oc2ccc(Br)cc2cc1-c1nc(-c2ccccc2)no1 | inactive: -1.68% | 
CCS(=O)(=O)N1CC(=O)N(c2ccc(C)c(C)c2)C(C)(C(=O)NC2CCCCC2)C1 (configuration not stated) | inactive: -4.94% | 

SMILES | activity change, positive = activation | Potency
CCC(C)NC(=O)C1CCC(CNS(=O)(=O)c2cccc3nsnc23)CC1 (configuration not stated) | inactive: -6.24% [at 11.5 µM, percent change from vehicle, -100% = no light] | 
CCc1ccc(-c2nc3c(c(SCc4ccc(F)cc4)n2)Cc2c(CO)cnc(C)c2O3)cc1 | inactive: -13% | 
COc1ccc(N2CCN(C(c3ccccc3)c3nnc(-c4ccccc4Cl)o3)CC2)cc1 (configuration not stated) | inactive: -12% | 
Cc1cccc(NC(=O)CSc2nc3c(oc4ccccc43)c(=O)n2C(C)C)c1 | inactive: -32% | 
CC1=C(C(=O)NCCc2ccc(Cl)cc2)C2(CCCCC2)OC1=O | inactive: -4.28% | 
COc1cccc(CNC(=O)Cn2ncc3c4ccccc4n(C)c3c2=O)c1 | inactive: -7.41% | 
COCCNC(=O)CCCn1c(SCC(=O)Nc2cccc(C)c2)nc2c(sc3ccccc32)c1=O | inactive: -9.65% | 
COc1ccc(C(=O)c2oc3ccccc3c2NC(=O)COc2c(C)cc(C)cc2C)cc1 | inactive: -2.92% | 
CCc1ccc(NC(=O)Cn2nnc(C(=O)NCc3ccco3)c2N)cc1 | inactive: -0.732% | 
Cc1ccccc1C(=O)Nc1nnc(SCc2cc(=O)c3c(C)ccc(C)c3[nH]2)s1 | inactive: -26.5% | 
CC1CCN(S(=O)(=O)c2cc(C(=O)NCc3ccc(F)cc3)n(C)c2)CC1 | inactive: -31.5% | 
COc1cccc(COC(=O)c2ccc(-c3nnn(Cc4ccccc4)n3)cc2)c1 | inactive: -9.86% | 
O=C1C(c2ccc(F)cc2)N(CCc2ccccc2)C(=O)CN1C1CCCCC1 (configuration not stated) | inactive: 0.0175% | 
CNC(=O)c1cc2n(n1)CCCN(Cc1ccc(F)cc1)C2=O | inactive: -10.1% | 
COc1ccc(CN(C(=O)Nc2ccc(C)c(F)c2)C2CCN(C(C)=O)CC2)cc1 | inactive: -7.35% | 
CCOc1ccc(CCNS(=O)(=O)c2c(C)nc3sc(C)cn3c2=O)cc1OCC | inactive: -5.82% | 
CC(=O)c1ccc(NC(=O)CCc2c(C)nn(-c3ccc4nncn4n3)c2C)cc1 | inactive: -15.9% | 
CSc1ccc(CCNC(=O)c2cc3n(n2)CCCN(Cc2ccc(C)cc2)C3=O)cc1 | inactive: -13% | 
CCC1CN(C(=O)N2CCC(C(=O)NCCOC)CC2)c2ccccc2O1 (configuration not stated) | inactive: -4.03% | 
Cc1ccc(NC(=O)CCS(=O)(=O)c2ccc3nc(C)sc3c2)cc1 | inactive: -16.1% | 
O=C(Nc1sc2c(c1C(=O)NCc1ccccc1)CCCC2)c1cc(=O)c2cc(Cl)ccc2o1 | inactive: -7.03% | 
CCc1ccccc1N1CC(c2nc3ccccc3n2Cc2cccc(C)c2)CC1=O (configuration not stated) | inactive: -48.7% | 
N#Cc1ccccc1Cn1nnc2c(=O)[nH]c(C3CCCN(S(=O)(=O)c4ccc(F)cc4)C3)nc21 (configuration not stated) | inactive: -22.7% | 
CCOc1ccc(S(=O)(=O)NCCc2sc(-c3ccc(C)cc3)nc2C)cc1 | inactive: -18.8% | 
CCOc1ccccc1N1CC(c2nc3ccccc3n2CCCOc2ccccc2OC)CC1=O (configuration not stated) | inactive: 7.34% | 

SMILES | activity change, positive = activation | Potency
COc1cccc(CNC(=O)Cn2ccc3cc(S(=O)(=O)N4CCCC4)ccc32)c1 | inactive: -17.7% | 
O=C(NCc1ccccc1)C1CCC(CNS(=O)(=O)c2ccc(Br)s2)CC1 (configuration not stated) | inactive: -12.2% | 
CC1CCc2nn(CC(=O)Nc3cccc(C(F)(F)F)c3)c(=O)cc2C1 (configuration not stated) | inactive: -18.2% | 
COc1cc(NC(=O)Cn2c(=O)n(C(C)C)c(=O)c3oc4ccccc4c32)cc(OC)c1 | inactive: -12.3% | 
O=C(Nc1cccnc1Cl)c1cc(-c2ccc(Cl)cc2)on1 | inactive: 7.77% | 
Cc1cc(C)c(NC(=O)CSc2nnc3[nH]c(=O)cc(C)n23)c(C)c1 | inactive: 12% | 
O=c1c2ccccc2n2c(-c3ccc(F)c(F)c3)nnc2n1CCc1ccccc1 | inactive: 27.1% | 
CCOC(=O)c1ccccc1NC1(c2ccc(OC)cc2)C(=O)c2ccccc2C1=O | inactive: -21.4% | 
CCC(=O)Nc1ccc2nc(SCC(=O)N3CCc4ccccc43)sc2c1 | inactive: -15.4% | 
CCOC(=O)c1c(S(=O)(=O)N2CCCC(C(=O)Nc3ccc(C)cc3C)C2)c(C)n(CC)c1C (configuration not stated) | inactive: 16% | 
COC(=O)c1ccc(C2c3c(oc4cc(C)c(C)cc4c3=O)C(=O)N2c2ccccn2)cc1 (configuration not stated) | inactive: -4.97% | 
CCOc1ccc(S(=O)(=O)Nc2ccc3c(c2)c(C(C)=O)c(C)n3S(=O)(=O)c2ccc(OCC)cc2)cc1 | inactive: -41.5% | 
Cc1cc(C)c(NC(=O)Cn2c(=O)n(CCC(=O)NCc3ccc4c(c3)OCO4)c(=O)c3ccccc32)c(C)c1 | inactive: -18.7% | 
CC(=O)Nc1ccc(C(=O)CSc2nnc3cc(C)c4ccccc4n23)cc1 | inactive: 0.228% | 
CCOC(=O)C1CCN(C(=O)CSc2c3c(nc4ccc(Cl)cc24)CCCC3)CC1 | inactive: -51.4% | 
COc1ccc(CCC(=O)NC2CC(=O)N(c3ccc(C)c(C)c3)C2)cc1 (configuration not stated) | inactive: -7.77% | 
Cc1ccc(NC(=O)c2sc3nc(-c4ccc(F)cc4)cn3c2C)c(C)c1 | inactive: -11.3% | 
O=C(NCc1ccc(Cl)cc1)C(=O)NCC(c1ccco1)S(=O)(=O)c1cccs1 (configuration not stated) | inactive: -13.3% | 
CCCCNC(=O)c1ccc2c(=O)n(-c3ccccc3)c(=O)[nH]c2c1 | inactive: -14.8% | 
CCc1ccc(NC(=O)C2CCCN(S(=O)(=O)c3c(C)[nH]c(=O)[nH]c3=O)C2)cc1 (configuration not stated) | inactive: -12.6% | 
COC(=O)c1ccc(Cn2nc(-c3ccc(C)c(C)c3)ccc2=O)cc1 | inactive: -15.1% | 
CC(C)c1ccc(NS(=O)(=O)c2ccc3[nH]c(=O)ccc3c2)cc1 | inactive: -27.5% | 
O=C(CCS(=O)(=O)c1cc2c3c(c1)CCN3C(=O)CC2)NCc1ccc(F)cc1 | inactive: -7.22% | 
COCCc1nn2c(=O)cc(COC(=O)COc3ccccc3C)nc2s1 | inactive: -0.165% | 
COc1ccc(Cl)cc1Nc1ncnc2c1nc1n2CCCC1 | inactive: -1.06% | 

SMILES | activity change, positive = activation | Potency
O=C(Nc1noc2ccccc12)c1cccc(F)c1 |  | active: 2 µM
CC(C)c1ccc(NC(=O)C2CCCN(S(=O)(=O)c3cccc4nonc34)C2)cc1 (configuration not stated) | inactive: -8.34% | 
O=C1CC(c2ccccc2)Cc2[nH]c(=O)c(-c3nc(-c4cccc(Cl)c4)cs3)cc21 (configuration not stated) | inactive: -23.4% | 
CCOC(=O)Cn1c(=O)oc2cc(S(=O)(=O)NCc3ccc(F)cc3)ccc21 | inactive: -19.1% | 
COc1ccc(CNC(=O)C(=O)NCC(c2ccc3c(c2)OCO3)N2CCOCC2)cc1 (configuration not stated) | inactive: -11.1% | 
CCCCC(CC)COC(=O)/C=C/c1ccc(OC)cc1 (configuration not stated) | inactive: 1.1% | 
Cc1ccc(Cl)cc1N1CCN(C(c2ccc(F)cc2)c2nnc(-c3ccccc3)o2)CC1 (configuration not stated) | inactive: 3.24% | 
COc1ccc(-c2cc(C(=O)N3CCN(c4ccccc4OC)CC3)c3cc(C(C)C)ccc3n2)cc1 | inactive: -22.6% | 
COC(=O)c1sccc1S(=O)(=O)N1CCN(c2cccc(C)c2C)CC1 | inactive: -32.8% | 
CCN(CC)CCc1nc(-c2ccccc2)no1 | inactive: 3.2% | 
Cc1noc(/C=C/N(C)C)c1S(=O)(=O)N1CCCC(C(=O)Nc2cccc(F)c2)C1 (configuration not stated) | inactive: -26.4% | 
O=C(NCC1(c2ccccc2)CCCC1)C(=O)Nc1cccc(C(F)(F)F)c1 | inactive: 2.42% | 
COc1ccc2nc(NS(=O)(=O)c3ccc(C)cc3)c(Nc3cc(Cl)ccc3OC)nc2c1 | inactive: -29.3% | 
CCOc1ccc(CCNC(=O)CSc2cc(=O)n(C)c3ccccc23)cc1OCC | inactive: -4.57% | 
COc1ccc(OC)c(CCNC(=O)CCn2c(=O)c3cccn3c3cccnc32)c1 | inactive: -19.4% | 
CCCCN(c1ccccc1)c1ncnc2c1cnn2-c1ccc(Cl)cc1 | inactive: -51.3% | 
CC(C)Cn1c(=O)c2ccccc2n2c(-c3ccc(Br)cc3)nnc12 | inactive: -16.3% | 
Cc1ccc(CN(Cc2ccco2)c2cnc(S(C)(=O)=O)nc2C(=O)Nc2ccc(Br)cc2)o1 | inactive: -33.3% | 
Cc1cc(C)cc(C(=O)Nc2cc(C(F)(F)F)ccc2N2CCN(c3ccccc3)CC2)c1 | inactive: -1.65% | 
Cc1ccccc1NC(=O)Cn1c(=O)n(Cc2ccc3c(c2)OCO3)c(=O)c2oc3ccccc3c21 | inactive: -10.1% | 
Cc1ccc(-c2cn3cccc(C)c3n2)cc1NS(=O)(=O)c1ccccc1 | inactive: 6.47% | 
O=C(c1ccccc1)N1CCc2cc(CNS(=O)(=O)c3ccccc3Cl)ccc21 | inactive: -27.7% | 
